Experimental data taken from PubChem BioAssay AID686979 (National Center for Advancing Translational Sciences (NCATS), 2013).
“And” between values parts separate entries of the source, which are not always exact repeats. Identical values can stand only once. Hit rate of the full screen: of about 420,000 compounds, about 50,000 (12%) were called active. The inconclusive results got no clear call from the source; some entries with a clear call stand among them for comparison. Calls follow the shape of the dose curve; as a rule, active = well fitted inhibition curve with a large enough effect; inconclusive = small, poorly fitted or top-dose-only effect; inactive = flat fitted curve, though single readings scatter. Where the call is inconclusive, the potency comes from a doubtful curve fit.

Experiment: qHTS for Inhibitors of human tyrosyl-DNA phosphodiesterase 1 (TDP1): qHTS in cells in presence of CPT; also: nearly all actives have a fitted effect of over 55% in size
Settings: chicken DT40 Tdp1-/-;hTDP1 cells + 20 nM CPT, ATP luminescence, 48 h; activity change, negative = growth inhibition: at 46.2 µM (top of the series) unless noted
How it was run: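 Chicken DT40 Tdp1-/- cells complemented with human TDP1, 400 cells/well, exposed to compounds plus 20 nM camptothecin for at least 48 h at 37 C; viability read as ATP content by CellTiter-Glo luminescence.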
% is scaled to controls: 0 for no effect and ±100 for the full control effect; potency is read from the fitted curve at half-maximal effect; tags tell the direction and shape of the fitted curve.

Q: Which Potency does the source give for `CCOc1ccc(C(=O)N[C@H](C(=O)N2CCN(c3ncccn3)CC2)C(C)C)cc1` here?
A: inconclusive: 16.4 µM [inhibitor, single point]

Q: Which Potency does the source give for `O=C(CNC(=O)Cc1ccccc1)NCC(=O)OCC(=O)c1cccc2ccccc12` here?
A: inconclusive: 18.4 µM [inhibitor, single point] and inconclusive: 17.8 µM [inhibitor, single point]

Q: For `Cc1ccc(NC(=O)CCN2CCC(C(N)=O)CC2)cc1`, which “activity change, negative = growth inhibition” value is on record?
A: inactive: -0.34%

Q: With `CCN(C[C@H]1N[C@@](C)(C(=O)OC)[C@H]2C(=O)N(Cc3ccccc3)C(=O)[C@@H]12)S(=O)(=O)c1ccc(OC)cc1` as the molecule, how does the Potency read?
A: inconclusive: 29.1 µM [inhibitor, single point]

Q: For `Cc1c(C)c(C)c2[nH]c(=S)[nH]c2c1C`, which Potency is on record?
A: inconclusive: 9.2 µM [inhibitor, partial curve, poor fit]

Q: For `CCOc1ccc(-c2cc(C(=O)O)c3ccccc3n2)cc1`, which activity change, negative = growth inhibition is on record?
A: inconclusive: -36.5% [inhibitor]

Q: With `C/C(=C\C(=O)c1ccc(Br)cc1)NNC(=O)c1ccc(O)cc1` as the molecule, how does the Potency read?
A: active: 13 µM

Q: With `O=c1c2c(ncn2C2CCCC2)n(Cc2ccccc2)c(=O)n1CCOc1ccccc1` as the molecule, how does the “activity change, negative = growth inhibition” value read?
A: inactive: -6.9%

Q: For `COc1ccc(/C=C(\NC(=O)c2ccc(OC)c(OC)c2)C(=O)NCCc2c[nH]c3ccccc23)cc1`, which “activity change, negative = growth inhibition” value is on record?
A: inactive: -1.48%

Q: Which “activity change, negative = growth inhibition” value does the source give for `NC(=O)COC(=O)c1ccc(-c2ccccc2)cc1` here?
A: inactive: -2.59%

Q: Which Potency does the source give for `CCOc1cc2nc(-c3ccc(OC)c(OC)c3)nc(NCCCN3CCOCC3)c2cc1OC` here?
A: inconclusive: 23.1 µM [inhibitor, single point]

Q: For `CCOC(=O)C1C2C=CC3(CN(Cc4cccs4)C(=O)C13)O2` (centres undefined), which Potency is on record?
A: inconclusive: 29.1 µM [inhibitor, single point]

Q: For `NC(=O)c1c(NC(NC(=O)c2ccco2)(C(F)(F)F)C(F)(F)F)sc2c1CCCC2`, which “activity change, negative = growth inhibition” value is on record?
A: inactive: -22%

Q: For `CCCCNC(=O)C1(C)CCN1C(=O)c1cc(C)n(C(C)(C)C)n1` (centres undefined), which Potency is on record?
A: inconclusive: 18.4 µM [inhibitor, single point]

Q: With `C=C1SC(=Nc2c(C)cc(C)cc2C)N(C(=O)c2sc3ccccc3c2Cl)C12CCCCC2` as the molecule, how does the Potency read?
A: inconclusive: 16.4 µM [inhibitor, single point]

Q: For `Cc1ccc(-c2nnc(SCC(=O)NCc3ccccc3)o2)cc1`, which Potency is on record?
A: inconclusive: 14.6 µM [inhibitor, single point]

Q: Which Potency does the source give for `N#C/C(=C/c1ccc(-c2ccc([N+](=O)[O-])cc2)o1)c1nnc(N2CCOCC2)n1-c1ccccc1` here?
A: inconclusive: 6.51 µM [inhibitor, single point]

Q: Which Potency does the source give for `S=C(NCCc1ccccn1)Nc1cccc(Cl)c1` here?
A: inconclusive: 23.1 µM [inhibitor, single point]

Q: With `O=C(CN1C(=O)NC2(CCCC2)C1=O)Nc1cc(C(F)(F)F)ccc1N1CCCCC1` as the molecule, how does the Potency read?
A: inconclusive: 32.6 µM [inhibitor, single point]

Q: With `COc1ccc(C(=O)OC2C(OC)OCC(O)C2O)cc1` (centres undefined) as the molecule, how does the “activity change, negative = growth inhibition” value read?
A: inactive: -9%

Q: For `CCOc1ccc(NC(=S)N(Cc2ccc(N(C)C)cc2)Cc2ccco2)cc1`, which Potency is on record?
A: inconclusive: 18.4 µM [inhibitor, single point]

Q: Which “activity change, negative = growth inhibition” value does the source give for `COCCNS(=O)(=O)c1ccc(SC)cc1` here?
A: inactive: -0.201%

Q: For `NC(=O)CN1C(=O)C(O)(CC(=O)/C=C\C=C\c2ccccc2)c2ccccc21` (centres undefined), which Potency is on record?
A: inconclusive: 29.1 µM [inhibitor, single point]

Q: For `COc1ccc(OC)c(CCNC(=O)CCCn2c(=O)c3cccn3c3cccnc32)c1`, which Potency is on record?
A: inconclusive: 16.4 µM [inhibitor, partial curve]

Q: Which Potency does the source give for `COc1ccc(CNC(=O)c2cnn(-c3ccccc3)c2-n2cccc2)cc1OC` here?
A: inconclusive: 29.1 µM [inhibitor, single point]

Q: Which Potency does the source give for `Cn1c(SCC(=O)c2ccc(O)c(O)c2)nnc1-c1cccs1` here?
A: inconclusive: 23.1 µM [inhibitor, partial curve]

Q: Which Potency does the source give for `COc1ccc(S(=O)(=O)N2CCOCC2)cc1NC(=O)CCNC(=O)c1ccc([N+](=O)[O-])cc1` here?
A: inconclusive: 16.4 µM [inhibitor, single point]

Q: Which Potency does the source give for `Cc1cc(C)c2cc(C#N)c(NCCCNC(=O)c3cccnc3)nc2c1` here?
A: inconclusive: 29.1 µM [inhibitor, single point]

Q: Which Potency does the source give for `O=C(Nc1ccc(-c2csc(-c3ccccc3)n2)cc1)c1ccccc1Cl` here?
A: active: 20.6 µM

Q: With `Cc1cccc2cc(CN(C(=O)c3cnccn3)C3CCCCC3)c(Cl)nc12` as the molecule, how does the Potency read?
A: inconclusive: 25.9 µM [inhibitor, single point]

Q: With `Cc1cc(C(=O)OCC(=O)N(C)c2c(N)n(Cc3ccccc3)c(=O)[nH]c2=O)c(C)n1-c1ccccc1` as the molecule, how does the Potency read?
A: inconclusive: 20.6 µM [inhibitor, single point]

Q: For `O=C(O)c1ccc(-c2nc3ccccc3s2)o1`, which “activity change, negative = growth inhibition” value is on record?
A: inactive: 6.66%

Q: Which “activity change, negative = growth inhibition” value does the source give for `CCCCC(=O)N(C)c1c(C)nc2ccc(C(=O)N(C)Cc3ccco3)cn12` here?
A: inactive: -19.5%

Q: For `Cc1cccc(C)c1NC(=O)C(CCc1ccccc1)n1c(=O)c(-c2ccccc2)nc2ccccc21` (centres undefined), which Potency is on record?
A: active: 3.26 µM

Q: With `Cc1ccc(NC(=O)Cn2nc(C)c3nn(-c4ccc(Cl)cc4)c(C)c3c2=O)cc1F` as the molecule, how does the Potency read?
A: inconclusive: 25.9 µM [inhibitor, single point]

Q: For `CC(=O)c1cccc(N=Nc2c(-c3ccccc3)[nH]n(-c3ccccc3)c2=O)c1`, which Potency is on record?
A: inconclusive: 18.4 µM [inhibitor, single point]

Q: Which Potency does the source give for `COc1cccc(Nc2nc(C(N)C(C)C)cs2)n1` (centres undefined) here?
A: active: 16.4 µM

Q: For `CCCCC(=O)NC(=S)Nc1nnn(CCC)n1`, which Potency is on record?
A: active: 4.11 µM

Q: For `COCc1c(C(=O)NC2CCCCC2)cnn1-c1nccc(-c2ccccc2OC)n1`, which activity change, negative = growth inhibition is on record?
A: inactive: 5.12% [at 9.04 µM]

Q: Which Potency does the source give for `OC(c1cc(-c2ccc(Cl)cc2)nc2ccccc12)C1CCCCN1` (centres undefined) here?
A: active: 23.1 µM

Q: For `COc1ccc(-c2n[nH]c3c2C(c2ccccn2)N(C)C3=O)cc1` (centres undefined), which Potency is on record?
A: inconclusive: 5.17 µM [inhibitor, single point]

Q: For `COc1cccc(C(O)c2nc(-c3cncnc3)cs2)c1` (centres undefined), which “activity change, negative = growth inhibition” value is on record?
A: inactive: -28.4%

Q: With `CCCOc1ccc(Oc2ccc(S(=O)(=O)N3CCN(C)CC3)cn2)cc1` as the molecule, how does the “activity change, negative = growth inhibition” value read?
A: inactive: -26.4%

Q: Which Potency does the source give for `NC(=O)c1ccccc1NC(=O)CCCc1ccccc1` here?
A: inconclusive: 29.1 µM [inhibitor, single point]

Q: Which Potency does the source give for `O=C(NC1CCCCCC1)C1CCN(S(=O)(=O)c2c(Cl)cccc2Cl)CC1` here?
A: active: 23.1 µM

Q: With `Cc1cc2c(cc(C(=O)NCCCN3CCOCC3)n2Cc2ccc(Cl)cc2)o1` as the molecule, how does the Potency read?
A: inconclusive: 29.1 µM [inhibitor, single point]

Q: With `COc1cc(Nc2ccc(C(=O)O)cc2[N+](=O)[O-])cc(OC)c1` as the molecule, how does the Potency read?
A: inconclusive: 13 µM [inhibitor, partial curve]

Q: Which Potency does the source give for `CCCn1cnc2cc(NCc3ccc(Br)cc3)ccc21` here?
A: inconclusive: 9.2 µM [inhibitor, partial curve]

Q: With `COc1cccc2cc(-c3ccccc3)oc12` as the molecule, how does the “activity change, negative = growth inhibition” value read?
A: inactive: -13.8%

Q: Which Potency does the source give for `CN(C(=O)c1ccc(OC2CCN(C(=O)c3cccnc3)CC2)cc1)C1CCCCC1` here?
A: inconclusive: 14.6 µM [inhibitor, partial curve, poor fit]

Q: Which “activity change, negative = growth inhibition” value does the source give for `Cc1ccccc1OCC(=O)N1CCN(C(=O)COc2ccccc2C)CC1` here?
A: inactive: -0.539%

Q: With `O=C(c1cnn2c(-c3ccccc3)cc(-c3ccccc3)nc12)N1CCN(Cc2ccccc2)CC1` as the molecule, how does the Potency read?
A: inconclusive: 32.6 µM [inhibitor, single point]

Q: With `COc1ccc(-c2nnn(CC(=O)N3CCN(c4ccccc4OC)CC3)n2)cc1` as the molecule, how does the Potency read?
A: inconclusive: 23.1 µM [inhibitor, single point]

Q: Which Potency does the source give for `Cc1ccc2[nH]c(CSc3ccccc3)cc(=O)c2c1` here?
A: active: 18.4 µM

Q: For `Cc1cccc(C(=O)Nc2ccc3nc(SCC(=O)N4CCCC4)sc3c2)c1`, which Potency is on record?
A: inconclusive: 25.9 µM [inhibitor, single point]

Q: With `O=C(CSc1nc(=O)[nH]c2c1CCC2)Nc1cc(C(F)(F)F)ccc1Cl` as the molecule, how does the Potency read?
A: inconclusive: 29.1 µM [inhibitor, single point]

Q: Which Potency does the source give for `CCOCCOc1nc2c(c(=O)n(C)c(=O)n2C)n1Cc1ccc(C)cc1` here?
A: inconclusive: 7.31 µM [inhibitor, partial curve]

Q: Which Potency does the source give for `COc1cccc(-n2nnc3c(=O)n(Cc4ccc(Br)cc4)cnc32)c1` here?
A: inconclusive: 0.58 µM [inhibitor, full curve, poor fit]

Q: Which “activity change, negative = growth inhibition” value does the source give for `Cn1cccc1C(=O)NCCc1ccccc1` here?
A: inactive: -13.3%

Q: For `COc1ccc(S(=O)(=O)NCC2CCC(C(=O)O)CC2)cc1` (centres undefined), which “activity change, negative = growth inhibition” value is on record?
A: inactive: 4.65%

Q: For `CCOC(=O)c1c(C)[nH]c(C(=O)COC(=O)c2ccco2)c1C`, which “activity change, negative = growth inhibition” value is on record?
A: inactive: -18.7%

Q: For `Cc1ccc(NC(=O)c2nc(S(=O)(=O)Cc3ccc(F)cc3)ncc2Cl)cc1C`, which Potency is on record?
A: active: 3.66 µM

Q: For `COC(=O)Cn1c(=NC(=O)c2ccc(OC)c(OC)c2)sc2cc(OC)ccc21`, which Potency is on record?
A: inconclusive: 23.1 µM [inhibitor, partial curve]

Q: For `O=C(NC1CCCCCCC1)c1cc(-c2ccccn2)nc2ccccc12`, which Potency is on record?
A: inconclusive: 29.1 µM [inhibitor, single point]

Q: Which Potency does the source give for `CCOc1ccccc1C(=O)N1CCC(n2nnc3cc(C(F)(F)F)ccc32)CC1` here?
A: inconclusive: 29.1 µM [inhibitor, single point]

Q: With `CCOC(=O)c1cnn(-c2nc(OCC)cc(OCC)n2)c1C` as the molecule, how does the Potency read?
A: inconclusive: 29.1 µM [inhibitor, single point]

Q: With `COc1ccccc1-c1nnc(NC(=O)c2ccc(S(=O)(=O)N(C)Cc3ccccc3)cc2)o1` as the molecule, how does the Potency read?
A: active: 13 µM

Q: For `CCOC(=O)c1[nH]c(C)c(CCC(=O)N2CCN(c3cc(C)ccc3C)CC2)c1C`, which Potency is on record?
A: inconclusive: 23.1 µM [inhibitor, single point]

Q: With `Clc1cccc(COn2c(-c3ccc(Cl)cc3Cl)nc3ncccc32)c1` as the molecule, how does the Potency read?
A: inconclusive: 18.4 µM [inhibitor, single point]
